# Measured values taken from the BET-seq Pho4 binding data (Le et al. 2018).
# Some of the results follow. These are noisy estimates, calculated here from bound and input reads.
# Molecular target: T1, Pho4 (S. cerevisiae) (UniProt P07270)
# T1 sequence: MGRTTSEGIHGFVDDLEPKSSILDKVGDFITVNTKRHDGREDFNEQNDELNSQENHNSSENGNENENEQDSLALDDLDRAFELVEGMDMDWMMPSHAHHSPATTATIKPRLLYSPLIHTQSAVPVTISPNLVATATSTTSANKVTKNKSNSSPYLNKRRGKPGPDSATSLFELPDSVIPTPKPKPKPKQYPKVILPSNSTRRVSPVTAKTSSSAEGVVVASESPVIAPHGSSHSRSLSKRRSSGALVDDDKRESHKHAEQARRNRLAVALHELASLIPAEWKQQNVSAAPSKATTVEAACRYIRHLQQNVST
# Experiment: relative binding free energy (BET-seq); higher = weaker binding
# Details: reference: library average
row,Sequence,relative binding free energy
1,AGGCACACGTGGAGGG,-0.03 kcal/mol
2,ATTCTCACGTGGGAAT,0.23 kcal/mol
3,GGGGGCACGTGGTAGC,-0.16 kcal/mol
4,AGTATCACGTGATAGA,0.25 kcal/mol
5,TAGGACACGTGGTTCT,-0.07 kcal/mol
6,TAGGTCACGTGTCTTA,0.08 kcal/mol
7,GCATTCACGTGTATGT,0.27 kcal/mol
8,GGTCGCACGTGGGAGC,-0.01 kcal/mol
9,CTAGTCACGTGGATAG,0.19 kcal/mol
10,TTTAACACGTGCGGTG,-0.03 kcal/mol
11,AAGAACACGTGTATGT,0.08 kcal/mol
12,TTTGACACGTGCAGAT,0.06 kcal/mol
13,TTGTCCACGTGTAATG,0.14 kcal/mol
14,AATTGCACGTGTAATG,0 kcal/mol
15,GTTAGCACGTGATTGA,0.13 kcal/mol
16,TCATGCACGTGGGCGG,-0.05 kcal/mol
17,TTATACACGTGTTGAC,0.13 kcal/mol
18,GCGTTCACGTGGCGTG,0.29 kcal/mol
19,AAATGCACGTGGGCGG,-0.16 kcal/mol
20,TGAGGCACGTGGTTAT,-0.14 kcal/mol
21,GTATTCACGTGGACAG,0.31 kcal/mol
22,TAGGTCACGTGTGGCT,0.04 kcal/mol
23,AGTTTCACGTGAGCGG,0.16 kcal/mol

row,Sequence,relative binding free energy
1,AGTTACACGTGTGAGA,0.29 kcal/mol
2,TTTATCACGTGATGCG,0.16 kcal/mol
3,TTGGTCACGTGGTACC,0.09 kcal/mol
4,TAGCTCACGTGGGTCT,0.11 kcal/mol
5,GAGGGCACGTGTGTGG,0.02 kcal/mol
6,TGTAACACGTGAATAG,0.33 kcal/mol
7,TTCTACACGTGTTTAG,0.22 kcal/mol
8,TTCGTCACGTGAGGAT,0.17 kcal/mol
9,TGTCACACGTGGGCAG,-0.08 kcal/mol
10,GCCGTCACGTGTGGGA,0.11 kcal/mol
11,AGTGGCACGTGACGTA,0.09 kcal/mol
12,TGGCCCACGTGTGGGT,0.01 kcal/mol
13,TGGGACACGTGCGGCT,-0.11 kcal/mol
14,ACTTTCACGTGGTTGT,0.12 kcal/mol
15,TTTTGCACGTGTTGAG,0.02 kcal/mol
16,GGAGTCACGTGATCGG,0.2 kcal/mol
17,TCAGGCACGTGCGGGG,-0.15 kcal/mol
18,AATTTCACGTGAGCTA,0.45 kcal/mol
19,GTTTACACGTGCTGTA,0.03 kcal/mol
20,GTCGGCACGTGGGAGG,-0.07 kcal/mol
21,ATTAGCACGTGTGGCA,-0.15 kcal/mol
22,GAGGGCACGTGGTTTC,-0.07 kcal/mol
23,GTGCACACGTGGTGAG,0.1 kcal/mol

row,Sequence,relative binding free energy
1,TTATTCACGTGTATGC,0.29 kcal/mol
2,AAGGGCACGTGCAAGG,-0.32 kcal/mol
3,TAGTTCACGTGTGACG,0.42 kcal/mol
4,GCTGGCACGTGTGCTT,0.14 kcal/mol
5,AATCACACGTGGGTTG,0.15 kcal/mol
6,TGAATCACGTGTATAA,0.23 kcal/mol
7,ATTTTCACGTGTAGGC,0.19 kcal/mol
8,TGGTACACGTGTATAG,0.02 kcal/mol
9,TATGACACGTGGAGTA,-0.07 kcal/mol
10,CATTGCACGTGGCGGT,-0.16 kcal/mol
11,AGTTACACGTGTGGCC,0.28 kcal/mol
12,TTTTACACGTGGAGAG,0.24 kcal/mol
13,TAGTTCACGTGTGAGA,0.41 kcal/mol
14,TCTTTCACGTGGGATA,0.15 kcal/mol
15,GATGTCACGTGTGCGG,0.21 kcal/mol
16,GTTGCCACGTGGATTG,0 kcal/mol
17,GTGAGCACGTGTGTAT,0.02 kcal/mol
18,GGTAACACGTGGGGGA,-0.02 kcal/mol
19,AGGTACACGTGTAGGG,0.06 kcal/mol
20,TAATCCACGTGGGGGG,-0.14 kcal/mol
21,TTAGACACGTGTGATT,0.2 kcal/mol
22,GGGGCCACGTGATGCG,0.11 kcal/mol
23,ATGCTCACGTGGGGGA,0.03 kcal/mol

row,Sequence,relative binding free energy
1,TTGGTCACGTGGGCGA,-0.03 kcal/mol
2,GTCACCACGTGTGTGG,0.02 kcal/mol
3,TTTTACACGTGACTGA,0.2 kcal/mol
4,GGTTTCACGTGCCTGG,0.31 kcal/mol
5,GCATGCACGTGGTTAT,0.12 kcal/mol
6,GATATCACGTGGTAAG,0.08 kcal/mol
7,ATTGACACGTGATCTT,0.15 kcal/mol
8,TTCTGCACGTGTGTGA,-0.03 kcal/mol
9,TCTGGCACGTGTTGAG,0 kcal/mol
10,GCGTGCACGTGTTTGA,0.13 kcal/mol
11,ATATGCACGTGGTCTG,-0.17 kcal/mol
12,TTGGCCACGTGTAGGC,-0.03 kcal/mol
13,TGCAGCACGTGGGAAG,-0.24 kcal/mol
14,GGCGTCACGTGGTAGT,0.16 kcal/mol
15,GAGCTCACGTGCGGTG,0.22 kcal/mol
16,GTCTGCACGTGTTATT,0.07 kcal/mol
17,GGGTGCACGTGGTTGT,0.04 kcal/mol
18,TCGGCCACGTGGGGAT,-0.19 kcal/mol
19,CTTGTCACGTGGGGGT,-0.13 kcal/mol
20,AACGTCACGTGATATG,0.29 kcal/mol
21,CATCTCACGTGGGTGG,0.13 kcal/mol
22,GTGGTCACGTGTGAGT,0.19 kcal/mol
23,TTAAGCACGTGTGGGA,-0.01 kcal/mol

row,Sequence,relative binding free energy
1,AGTATCACGTGCATGT,0.17 kcal/mol
2,CTAGGCACGTGATGTA,-0.02 kcal/mol
3,CGGGTCACGTGCGTGA,-0.08 kcal/mol
4,TCTGTCACGTGTGGTG,0.08 kcal/mol
5,GCGTGCACGTGGTCGT,-0.23 kcal/mol
6,GTACGCACGTGGGTTG,-0.28 kcal/mol
7,GATCGCACGTGTTGGT,0.08 kcal/mol
8,TAGGGCACGTGTGATT,-0.03 kcal/mol
9,GGTGGCACGTGGGTCT,-0.13 kcal/mol
10,GTAAACACGTGTATGA,0.16 kcal/mol
11,TATTGCACGTGATGTT,0.17 kcal/mol
12,GTTTGCACGTGCTCTG,0.11 kcal/mol
13,TTGGACACGTGAGTTA,0.26 kcal/mol
14,TTGTTCACGTGCTTTT,0.34 kcal/mol
15,AGTATCACGTGGACTG,0.24 kcal/mol
16,TGCGTCACGTGGTATA,0.04 kcal/mol
17,CAATGCACGTGTTAGG,0.04 kcal/mol
18,TCGGGCACGTGTCTGT,-0.15 kcal/mol
19,GTGTCCACGTGCGTGT,-0.04 kcal/mol
20,GACATCACGTGGTAGG,0.2 kcal/mol
21,GCGGACACGTGTGTTG,0.09 kcal/mol
22,TTCTTCACGTGTTGAG,0.34 kcal/mol
23,AATCACACGTGTTTTT,0.06 kcal/mol
